Publication PMC4489161
No constants are given. Whether binding was seen depends on the method and setting. Binding seen in cells or lysates may run through a third protein. Some binding calls cover weakened binding; strength is not graded here.

Amino acid sequences for entries named in this document (tags omitted).
UniProt Q6R327: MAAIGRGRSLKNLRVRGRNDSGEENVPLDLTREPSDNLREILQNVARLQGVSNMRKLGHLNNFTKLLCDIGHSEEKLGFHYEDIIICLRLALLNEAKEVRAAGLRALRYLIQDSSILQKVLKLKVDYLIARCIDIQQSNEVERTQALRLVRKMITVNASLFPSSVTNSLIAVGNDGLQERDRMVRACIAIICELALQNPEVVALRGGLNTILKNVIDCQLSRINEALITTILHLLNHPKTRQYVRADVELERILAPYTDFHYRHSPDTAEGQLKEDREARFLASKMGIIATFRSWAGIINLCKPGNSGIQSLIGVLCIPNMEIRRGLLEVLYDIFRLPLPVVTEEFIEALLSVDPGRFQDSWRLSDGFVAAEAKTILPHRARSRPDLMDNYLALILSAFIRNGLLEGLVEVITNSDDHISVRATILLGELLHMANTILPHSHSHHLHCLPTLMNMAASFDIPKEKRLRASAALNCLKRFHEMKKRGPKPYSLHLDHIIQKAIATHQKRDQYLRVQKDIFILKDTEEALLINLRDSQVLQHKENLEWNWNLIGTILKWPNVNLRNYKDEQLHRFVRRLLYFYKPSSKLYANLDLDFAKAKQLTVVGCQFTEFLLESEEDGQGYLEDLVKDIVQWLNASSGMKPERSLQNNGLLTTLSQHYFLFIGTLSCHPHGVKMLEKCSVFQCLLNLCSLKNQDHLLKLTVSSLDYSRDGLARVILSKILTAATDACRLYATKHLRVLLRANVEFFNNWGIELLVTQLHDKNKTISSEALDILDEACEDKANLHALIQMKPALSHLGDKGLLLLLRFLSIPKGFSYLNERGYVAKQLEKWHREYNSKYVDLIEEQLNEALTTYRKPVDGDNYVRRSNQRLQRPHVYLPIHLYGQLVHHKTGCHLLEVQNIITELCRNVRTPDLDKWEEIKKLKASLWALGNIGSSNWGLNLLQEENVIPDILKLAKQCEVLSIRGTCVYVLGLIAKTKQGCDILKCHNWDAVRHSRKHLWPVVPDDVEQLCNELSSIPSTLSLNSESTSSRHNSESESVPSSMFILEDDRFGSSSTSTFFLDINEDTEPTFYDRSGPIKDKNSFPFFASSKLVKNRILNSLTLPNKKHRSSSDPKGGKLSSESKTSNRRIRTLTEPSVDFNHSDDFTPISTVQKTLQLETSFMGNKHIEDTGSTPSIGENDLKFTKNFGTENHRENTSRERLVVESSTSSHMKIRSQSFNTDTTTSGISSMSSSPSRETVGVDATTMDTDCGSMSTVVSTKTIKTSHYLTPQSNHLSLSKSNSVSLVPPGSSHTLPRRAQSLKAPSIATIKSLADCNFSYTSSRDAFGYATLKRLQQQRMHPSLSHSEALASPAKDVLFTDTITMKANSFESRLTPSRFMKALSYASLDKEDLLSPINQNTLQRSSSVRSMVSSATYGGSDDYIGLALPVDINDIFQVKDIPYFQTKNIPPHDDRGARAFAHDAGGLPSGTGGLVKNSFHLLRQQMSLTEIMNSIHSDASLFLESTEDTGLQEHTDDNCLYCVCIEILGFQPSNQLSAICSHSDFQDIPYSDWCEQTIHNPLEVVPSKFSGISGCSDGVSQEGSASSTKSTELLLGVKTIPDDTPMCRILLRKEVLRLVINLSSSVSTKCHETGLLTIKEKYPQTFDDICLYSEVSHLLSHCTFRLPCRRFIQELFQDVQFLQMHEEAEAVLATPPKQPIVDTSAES
UniProt P21333: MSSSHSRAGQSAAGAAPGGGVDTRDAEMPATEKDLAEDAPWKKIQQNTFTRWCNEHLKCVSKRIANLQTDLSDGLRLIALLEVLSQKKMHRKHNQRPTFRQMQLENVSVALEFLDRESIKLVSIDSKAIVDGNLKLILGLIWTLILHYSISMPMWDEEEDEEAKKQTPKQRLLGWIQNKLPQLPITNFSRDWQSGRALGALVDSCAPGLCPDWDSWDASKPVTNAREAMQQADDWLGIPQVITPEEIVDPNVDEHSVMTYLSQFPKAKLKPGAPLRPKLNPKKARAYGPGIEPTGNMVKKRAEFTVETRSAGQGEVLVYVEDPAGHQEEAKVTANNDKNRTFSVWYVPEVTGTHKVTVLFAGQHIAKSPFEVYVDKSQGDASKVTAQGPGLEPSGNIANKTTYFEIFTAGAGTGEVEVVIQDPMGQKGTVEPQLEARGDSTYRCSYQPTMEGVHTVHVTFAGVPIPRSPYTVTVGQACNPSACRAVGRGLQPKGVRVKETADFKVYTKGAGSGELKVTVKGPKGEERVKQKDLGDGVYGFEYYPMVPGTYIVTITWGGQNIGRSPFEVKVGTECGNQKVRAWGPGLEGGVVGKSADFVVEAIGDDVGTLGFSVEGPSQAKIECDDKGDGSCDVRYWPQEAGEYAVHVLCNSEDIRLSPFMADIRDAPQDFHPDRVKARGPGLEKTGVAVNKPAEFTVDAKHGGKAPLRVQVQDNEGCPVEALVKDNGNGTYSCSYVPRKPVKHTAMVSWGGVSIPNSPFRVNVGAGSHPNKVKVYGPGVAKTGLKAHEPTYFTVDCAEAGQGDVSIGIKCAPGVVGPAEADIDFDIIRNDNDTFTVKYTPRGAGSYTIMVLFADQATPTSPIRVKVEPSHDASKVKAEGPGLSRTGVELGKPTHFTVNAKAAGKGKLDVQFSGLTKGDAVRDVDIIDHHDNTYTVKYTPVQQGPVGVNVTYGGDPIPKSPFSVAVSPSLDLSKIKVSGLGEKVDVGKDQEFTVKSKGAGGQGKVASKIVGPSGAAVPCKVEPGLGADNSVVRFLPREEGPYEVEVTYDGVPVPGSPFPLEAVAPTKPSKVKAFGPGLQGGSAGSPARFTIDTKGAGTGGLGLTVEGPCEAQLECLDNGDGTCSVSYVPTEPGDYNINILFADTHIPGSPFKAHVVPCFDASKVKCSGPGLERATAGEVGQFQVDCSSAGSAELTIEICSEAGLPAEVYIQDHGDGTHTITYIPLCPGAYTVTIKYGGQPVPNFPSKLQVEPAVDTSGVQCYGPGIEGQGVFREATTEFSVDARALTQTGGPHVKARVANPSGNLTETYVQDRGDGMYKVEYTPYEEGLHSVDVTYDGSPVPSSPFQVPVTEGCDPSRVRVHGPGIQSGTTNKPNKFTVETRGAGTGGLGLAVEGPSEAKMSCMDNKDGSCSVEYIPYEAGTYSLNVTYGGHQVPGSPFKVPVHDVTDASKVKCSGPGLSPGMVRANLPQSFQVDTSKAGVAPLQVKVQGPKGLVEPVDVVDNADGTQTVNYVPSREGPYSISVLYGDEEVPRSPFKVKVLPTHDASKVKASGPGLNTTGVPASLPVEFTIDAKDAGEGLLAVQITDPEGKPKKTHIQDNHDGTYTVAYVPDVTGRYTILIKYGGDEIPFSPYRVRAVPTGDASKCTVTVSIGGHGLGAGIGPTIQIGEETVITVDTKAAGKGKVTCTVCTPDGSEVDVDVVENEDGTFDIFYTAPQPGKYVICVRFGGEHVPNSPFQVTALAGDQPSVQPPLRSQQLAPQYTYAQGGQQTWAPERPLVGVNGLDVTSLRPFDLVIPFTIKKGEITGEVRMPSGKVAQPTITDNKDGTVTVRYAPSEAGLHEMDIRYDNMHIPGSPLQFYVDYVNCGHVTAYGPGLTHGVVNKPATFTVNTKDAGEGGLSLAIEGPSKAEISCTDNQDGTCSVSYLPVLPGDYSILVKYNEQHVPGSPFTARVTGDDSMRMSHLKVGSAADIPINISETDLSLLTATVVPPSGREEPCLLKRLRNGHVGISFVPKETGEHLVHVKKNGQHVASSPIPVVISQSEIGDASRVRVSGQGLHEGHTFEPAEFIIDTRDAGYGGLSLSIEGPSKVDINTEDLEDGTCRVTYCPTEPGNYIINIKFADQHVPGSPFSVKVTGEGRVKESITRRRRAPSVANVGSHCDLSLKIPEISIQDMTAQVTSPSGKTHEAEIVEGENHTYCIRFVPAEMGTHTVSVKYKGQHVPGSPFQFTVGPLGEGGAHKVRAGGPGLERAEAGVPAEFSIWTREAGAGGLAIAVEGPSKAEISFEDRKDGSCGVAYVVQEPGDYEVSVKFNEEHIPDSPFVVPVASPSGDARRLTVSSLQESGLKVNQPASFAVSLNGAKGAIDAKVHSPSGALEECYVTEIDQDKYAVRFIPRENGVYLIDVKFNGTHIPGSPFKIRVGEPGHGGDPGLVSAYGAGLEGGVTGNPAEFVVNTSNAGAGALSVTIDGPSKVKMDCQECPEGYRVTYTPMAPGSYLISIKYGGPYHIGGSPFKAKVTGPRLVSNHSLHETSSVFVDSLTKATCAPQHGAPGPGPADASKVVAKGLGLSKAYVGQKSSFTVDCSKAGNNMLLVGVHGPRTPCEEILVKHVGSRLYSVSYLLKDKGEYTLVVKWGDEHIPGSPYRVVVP
UniProt Q8N122: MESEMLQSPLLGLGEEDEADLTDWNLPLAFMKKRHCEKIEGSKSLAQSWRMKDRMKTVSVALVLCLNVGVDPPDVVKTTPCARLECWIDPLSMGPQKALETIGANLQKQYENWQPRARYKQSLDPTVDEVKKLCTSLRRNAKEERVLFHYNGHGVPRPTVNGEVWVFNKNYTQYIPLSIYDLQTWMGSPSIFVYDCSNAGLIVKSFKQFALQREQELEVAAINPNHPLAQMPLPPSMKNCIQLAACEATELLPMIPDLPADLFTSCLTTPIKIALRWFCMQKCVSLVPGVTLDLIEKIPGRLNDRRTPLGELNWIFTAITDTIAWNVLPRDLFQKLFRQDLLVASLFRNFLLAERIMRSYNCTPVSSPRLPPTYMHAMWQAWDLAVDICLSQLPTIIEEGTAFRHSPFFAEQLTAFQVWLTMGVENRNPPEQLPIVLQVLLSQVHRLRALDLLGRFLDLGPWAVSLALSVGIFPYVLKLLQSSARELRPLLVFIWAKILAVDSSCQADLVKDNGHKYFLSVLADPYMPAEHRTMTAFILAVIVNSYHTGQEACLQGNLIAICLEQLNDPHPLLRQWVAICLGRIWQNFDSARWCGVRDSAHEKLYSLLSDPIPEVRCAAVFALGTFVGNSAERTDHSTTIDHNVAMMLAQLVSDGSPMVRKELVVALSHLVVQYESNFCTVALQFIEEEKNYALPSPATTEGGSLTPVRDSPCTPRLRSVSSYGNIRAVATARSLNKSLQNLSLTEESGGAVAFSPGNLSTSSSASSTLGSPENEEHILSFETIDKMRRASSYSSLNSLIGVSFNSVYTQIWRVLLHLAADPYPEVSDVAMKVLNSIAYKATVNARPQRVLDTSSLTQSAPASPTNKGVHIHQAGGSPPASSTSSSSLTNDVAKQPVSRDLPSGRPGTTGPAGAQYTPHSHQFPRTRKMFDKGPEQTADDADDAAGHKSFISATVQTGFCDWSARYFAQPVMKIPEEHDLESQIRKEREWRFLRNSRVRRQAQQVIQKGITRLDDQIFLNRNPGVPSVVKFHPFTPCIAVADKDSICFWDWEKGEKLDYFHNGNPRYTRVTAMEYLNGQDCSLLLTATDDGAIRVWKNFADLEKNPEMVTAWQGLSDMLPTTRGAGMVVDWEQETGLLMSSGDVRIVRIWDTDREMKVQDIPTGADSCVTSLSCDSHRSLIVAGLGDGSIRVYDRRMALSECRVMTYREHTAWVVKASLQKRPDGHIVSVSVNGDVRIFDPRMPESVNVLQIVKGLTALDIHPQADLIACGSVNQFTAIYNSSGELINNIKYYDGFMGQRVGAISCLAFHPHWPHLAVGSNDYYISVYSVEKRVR

How the values were obtained:
[1] = target: FLAG-RICTOR (stably expressed in HEK293T cells) (UniProt Q6R327); experiment: co-IP; FLAG-RICTOR captured from HEK293T lysate (2 % CHAPS) on anti-FLAG M2 magnetic beads, eluted with 3X FLAG peptide; partners detected by immunoblot
[2] = target: FLAG-RICTOR (stably expressed in U87vIII cells) (UniProt Q6R327); experiment: co-IP; FLAG-RICTOR captured from U87vIII lysate (2 % CHAPS) on anti-FLAG M2 magnetic beads, eluted with 3X FLAG peptide; partners detected by immunoblot
[3] = target: RICTOR (endogenous, U87vIII cells) (human (endogenous in U87vIII)) (UniProt Q6R327); experiment: co-IP; U87vIII lysate (2 % CHAPS) incubated overnight at 4 °C with antibodies against mTOR, phospho-FLNA (Ser2152), RICTOR or RAPTOR, protein G Dynabeads; endogenous proteins detected by Western blot
[4] = target: FLAG-RICTOR (stably expressed in U87vIII cells) (UniProt Q6R327); experiment: co-IP; FLAG-RICTOR captured on anti-FLAG beads from U87vIII cells lysed with 1 % Triton X-100 in place of 2 % CHAPS (dissociates mTOR from RICTOR); immunoblot
[5] = target: phospho-Filamin A (Ser2152) (endogenous, U87vIII cells) (human (endogenous in U87vIII)) (UniProt P21333); experiment: co-IP; U87vIII lysate (2 % CHAPS) incubated overnight at 4 °C with antibodies against mTOR, phospho-FLNA (Ser2152), RICTOR or RAPTOR, protein G Dynabeads; endogenous proteins detected by Western blot

| binding [1] | binding [2] | Substance | other results |
| --- | --- | --- | --- |
| – | binds | Filamin A (endogenous, U87vIII cells) (from UniProt P21333 1-2647) | binding [4]: binds |
| – | no binding | PKCα (endogenous, U87vIII cells) (from UniProt P17252 1-672) | – |

The remaining lines, values behind:

| Substance | binding [1] | binding [2] | other results |
| --- | --- | --- | --- |
| phospho-Filamin A (Ser2152) (endogenous, HEK293T cells) (from UniProt P21333 1-2647) | binds | – | – |
| phospho-Filamin A (Ser2152) (endogenous, U87vIII cells) (from UniProt P21333 1-2647) | – | binds | binding [3]: binds |
| Filamin A (endogenous, HEK293T cells) (from UniProt P21333 1-2647) | binds | – | – |
| RAPTOR (endogenous, U87vIII cells) (from UniProt Q8N122 1-1335) | – | – | binding [5]: no binding |
